Experimental data: PMC4336329 (PLoS ONE, 2015)
In all, about 310,000 compounds went through this assay and about 14,000 (4.5%) showed an effect of 50% or more. The effect is printed as a negative number. This is one part of the list.

The molecules below were run against human ether-à-go-go-related gene (hERG) potassium channel (human, UniProt Q12809) (assay: primary screen, population patch clamp on CHO cells stably expressing hERG).
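Also: peak tail current of the secondary pulse compared with the same well before compound.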

Chain of human ether-à-go-go-related gene (hERG) potassium channel (Q12809 whole entry, looked up): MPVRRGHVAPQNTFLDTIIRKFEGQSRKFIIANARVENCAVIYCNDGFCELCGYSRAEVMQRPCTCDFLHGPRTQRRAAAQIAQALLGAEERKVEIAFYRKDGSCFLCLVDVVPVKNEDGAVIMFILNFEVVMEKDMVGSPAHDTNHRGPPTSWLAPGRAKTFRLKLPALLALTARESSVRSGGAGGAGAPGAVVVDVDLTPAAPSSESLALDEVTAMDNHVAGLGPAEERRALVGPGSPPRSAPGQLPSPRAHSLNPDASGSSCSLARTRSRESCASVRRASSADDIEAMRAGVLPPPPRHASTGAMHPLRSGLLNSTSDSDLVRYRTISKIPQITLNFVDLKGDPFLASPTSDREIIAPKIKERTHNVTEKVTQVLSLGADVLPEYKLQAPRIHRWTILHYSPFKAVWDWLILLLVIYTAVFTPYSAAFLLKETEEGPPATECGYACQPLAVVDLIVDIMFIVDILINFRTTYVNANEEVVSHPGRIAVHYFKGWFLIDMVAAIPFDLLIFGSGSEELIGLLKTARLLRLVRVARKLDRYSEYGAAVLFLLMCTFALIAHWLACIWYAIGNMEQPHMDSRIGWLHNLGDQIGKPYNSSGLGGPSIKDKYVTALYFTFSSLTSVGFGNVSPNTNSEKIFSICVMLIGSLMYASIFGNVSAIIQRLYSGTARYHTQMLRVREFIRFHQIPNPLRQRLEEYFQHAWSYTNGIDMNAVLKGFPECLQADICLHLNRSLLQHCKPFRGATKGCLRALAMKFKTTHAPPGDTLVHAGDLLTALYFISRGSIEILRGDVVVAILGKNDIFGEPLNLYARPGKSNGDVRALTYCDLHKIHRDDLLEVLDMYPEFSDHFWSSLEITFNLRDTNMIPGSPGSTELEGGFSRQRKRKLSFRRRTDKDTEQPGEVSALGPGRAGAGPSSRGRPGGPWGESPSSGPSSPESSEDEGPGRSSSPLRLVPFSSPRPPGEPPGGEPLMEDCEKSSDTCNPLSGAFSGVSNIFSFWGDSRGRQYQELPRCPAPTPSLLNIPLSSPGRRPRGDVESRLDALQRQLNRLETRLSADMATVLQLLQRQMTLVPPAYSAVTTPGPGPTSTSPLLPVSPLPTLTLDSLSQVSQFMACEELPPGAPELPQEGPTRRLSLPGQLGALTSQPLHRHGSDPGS

| Compound | hERG current change (%, negative = inhibition) at 10uM |
| --- | --- |
| Cn1nnnc1SCC(=O)NC1CCCc2ccccc21 (stereo not shown) | 22.9% |
| COCC(=O)NC(c1ccccc1)c1ccccc1 | -4.82% |
| CC(=O)Nc1ccc(S(=O)(=O)NC2=NCN(C)CN2)cc1 | 2.76% |
| Cc1nn(Cc2ccccc2)c(C)c1/C=N/NC(=O)c1cccnc1 | -1.16% |
| COC(=O)c1sc2ccccc2c1NC(=O)c1cccs1 | -6.7% |
| CC1CN(S(=O)(=O)c2ccc(C(=O)NCCCn3ccnc3)cc2)CC(C)O1 (stereo not shown) | 13.7% |
| CCc1nnc(NC(=O)c2cccc(S(=O)(=O)N3CCN(C(C)=O)CC3)c2)s1 | -7.3% |
| O=C(NC(Cc1ccccc1)C(=O)O)c1ccc(S(=O)(=O)N2CCOCC2)cc1 (stereo not shown) | -3.75% |
| Cc1c(C(=O)C(=O)N2CC=C(c3ccccc3)CC2)c2ccccc2n1C | -4.57% |
| Cc1cc(F)ccc1S(=O)(=O)Nc1ccccc1C(=O)Nc1ncn[nH]1 | -9.1% |
| N#C/C(=C\c1ccccc1[N+](=O)[O-])C(=O)Nc1ccc(S(N)(=O)=O)cc1 | -7.82% |
| O=c1[nH]c2ccccc2nc1Cc1ccccc1 | -0.877% |
| Cc1ccc(CSc2ccc(S(=O)(=O)N3CCOCC3)cn2)cc1 | -10.2% |
| CCCCCCC1(C)NC(=O)N(C(C)C(=O)Nc2ccc(N3CCOCC3)cc2)C1=O (stereo not shown) | -15.6% |
| COc1ccc(S(=O)(=O)N2CCCC(C(=O)NCc3ccccn3)C2)cc1 (stereo not shown) | -4.88% |
| CCN1CCN(C(=O)Cc2c(C)n(C(=O)c3ccc(Cl)cc3)c3ccc(OC)cc23)CC1.Cl | -38.6% |
| O=C(O)CCCNC(=O)OCc1ccccc1 | 2.02% |
| Fc1ccc(N=c2ssnc2Cl)c(F)c1 | 22.1% |
| CCN(CC)S(=O)(=O)c1ccc(/C=C/C(=O)OCC(=O)NNC(=O)c2ccc(OC)cc2)cc1 | -7.77% |
| CC(Sc1nnc(C2CC2)n1C1CC1)C(=O)c1ccc(F)cc1 (stereo not shown) | -3.15% |
| Cc1csc(N2CCCC2=O)n1 | 17.1% |
| Cc1ccc(CNC(=O)c2nccnc2C(=O)O)cc1 | 10.9% |

| Compound | hERG current change (%, negative = inhibition) at 10uM |
| --- | --- |
| CCOC(=O)c1cnn(-c2ccc([N+](=O)[O-])cc2)c1N | 1.43% |
| Cc1ccc(NC(=O)Cn2c(=O)oc3cc(S(=O)(=O)N4CCC(C)CC4)ccc32)cc1C | -3.11% |
| CN(C)/C=C(\C(=O)c1ccccc1)c1nnnn1-c1ccc(F)cc1 | 9.72% |
| CCCCn1c(C2CCCCC2)nc2cc3[nH]c(=O)c(C(C)C)nc3cc21 | -12.3% |
| C=CCN1C(=O)C(Cc2ccc(SC(F)F)cc2)SC1=Nc1ccc(C(=O)O)cc1 (stereo not shown) | 1.77% |
| COc1cc(OC)c(/C=N/NC(N)=S)cc1Br | 20.3% |
| O=c1[nH]ncn1-c1ccccc1 | 22% |
| O=C(Nc1ccc(C2CCCCC2)cc1)C1CCN(c2ncccn2)CC1 | 22.8% |
| CC(=O)Nc1cccc(/C(C)=N/NC(=O)c2ccc(CN3CCOCC3)cc2)c1 | 7.7% |
| Cn1c(Cn2c(=O)sc3ccccc32)nnc1SCC(=O)Nc1ccc(Cl)cc1 | -2.98% |
| COc1ccccc1OC(C)C(=O)Nc1ccc(S(=O)(=O)N2CCN(C)CC2)cc1 (stereo not shown) | 3.85% |
| O=[N+]([O-])c1cc(Cl)ccc1-c1nc(-c2ccccc2)no1 | 6.74% |
| CCN1CCCC1CNC(=O)Cn1cccc1C(=O)c1ccccc1 (stereo not shown) | -3.53% |
| O=C(CSc1nc2ccccc2[nH]1)Nc1ccccc1N1CCOCC1 | -8.81% |
| Cc1cccc(NC(=S)N(Cc2cccs2)Cc2cc3cc(C)cc(C)c3[nH]c2=O)c1 | 23% |
| COc1ccc(-c2cc(C)no2)cc1S(=O)(=O)N1CCCN(Cc2ccc(F)cc2)C1 | -16.9% |
| CCOc1ccccc1CN1CCNC(=O)C1CC(=O)NCc1nccn1CC (stereo not shown) | 18.8% |
| Cc1cccc(NC(=O)c2ccc(F)c(S(=O)(=O)N3CCC4(CC3)OCCO4)c2)c1 | -11.1% |
| COc1cc(NS(=O)(=O)c2ccc(NC(=O)c3ccc(F)cc3)cc2)ncn1 | 8.57% |
| Cc1ccccc1C(=O)N1CCC(C(=O)NC2CCCCCC2)CC1 | 16.9% |
| COC(=O)c1ccc(-n2c(CCC(=O)O)ccc2-c2ccccc2)cc1 | 15.5% |
| Cc1cccc2c1N(CCOc1ccccc1)C(=O)C2=O | 8.87% |

| Compound | hERG current change (%, negative = inhibition) at 10uM |
| --- | --- |
| CCOc1ccc(S(=O)(=O)NCc2ccccc2OC)cc1 | -5.8% |
| CC(C)(C)NC(=O)C(=O)NNC(=O)COc1ccc(Br)cc1 | 5.23% |
| COc1cc(NC(=O)Cn2cnc3sc(C)c(S(=O)(=O)N4CCOCC4)c3c2=O)cc(OC)c1OC | 32.7% |
| CCOc1cc(C(=O)N(C)c2ccccc2)cc(OCC)c1OCC | -10.7% |
| CCN1CCCc2cc(CN(CCN3CCOCC3)C(=S)Nc3ccc(OC)cc3)ccc21 | 7.64% |
| C=CCNC(=O)c1cc(-c2ccncc2)nc2c(C)cc(C)cc12 | -43.5% |
| Cc1sc2ncnc(NCC(O)c3ccc([N+](=O)[O-])cc3)c2c1C (stereo not shown) | -71.6% |
| COc1ccc(S(=O)(=O)N(C)C)cc1NC(=O)CSc1nc(N)cc(N)n1 | 18.1% |
| CC1CCc2nc(NC(=O)Nc3ccc4c(c3)OCO4)sc2C1 (stereo not shown) | 2.04% |
| CCOc1cc(CNC(=O)CCCn2c(=O)c3cccn3c3cccnc32)cc(OCC)c1OCC | -42.3% |
| CCc1ccnc(NC(=O)Nc2ccc(OCc3ccccc3)cc2)c1 | 16% |
| Cc1ccc(-n2c(C)cc(C(=O)CN3CCOCC3)c2C)cc1C | -30.1% |
| Cc1ccc(S(=O)(=O)Nc2ccc(N3CCOCC3)nc2)cc1 | 7.11% |
| COC(CNC(=O)Cn1nc(Cc2ccncc2)c2ccccc2c1=O)OC | 18.9% |
| CCOC(=O)C1(Cc2cccc(OC)c2)CCN(C(C)COC)CC1 (stereo not shown) | 5.9% |
| COc1cc(/C=C2/NC(=O)N(c3cccc(Cl)c3)C2=O)ccc1O | 17.5% |
| O=S(=O)(c1cccs1)N1CCN(c2ccc(F)cc2)CC1 | -43.1% |
| Cc1cc(NC(=O)CCC(=O)N(CC(=O)NC2CCCC2)c2cccc(F)c2)no1 | -3.17% |
| COc1cccc(CSc2nnc(-c3ccc(F)cc3)o2)c1 | 1.24% |
| CCc1cccc(NC(=O)C2CCN(S(=O)(=O)c3ccc4c(c3)CC(C)N4C(C)=O)CC2)c1 (stereo not shown) | 2.05% |
| C=CCn1c2ccccc2c2nnc(SCN3C(=O)c4ccccc4C3=O)nc21 | -7.89% |
| Cc1ccc(S(=O)(=O)n2nc(OC(=O)c3cccs3)cc2N)cc1 | 10.9% |

| Compound | hERG current change (%, negative = inhibition) at 10uM |
| --- | --- |
| CCN(CC)S(=O)(=O)c1c(Br)cc(C)cc1Br | -28.8% |
| CCOc1cc(N2CCOCC2)c(OCC)cc1NC(=O)COc1ncnc2ccc(Br)cc12 | -6.42% |
| CN1C(=O)C2CN(CCc3ccccc3)CNC2N(C)C1=O (stereo not shown) | 7.02% |
| O=C(Nn1cnnc1)c1ccccc1Cl | 15.4% |
| CCOC(=S)SCC(=O)Nc1nc(-c2ccc(Br)cc2)cs1 | -45.2% |
| CNS(=O)(=O)c1cccc(C(=O)OCC(=O)c2c(N)n(C)c(=O)n(C)c2=O)c1 | 11.9% |
| COc1cc(NC(=O)NNC(=O)c2cc3occc3n2C)cc(OC)c1OC | 26.1% |
| COc1ccc(F)cc1S(=O)(=O)Nc1cc2c3c(c1)CC(=O)N3CCC2 | 8.85% |
| COc1ccccc1N=NC1=C(O)CC(C)(C)CC1=O | 32.9% |
| COc1cc(C2NC(=O)NC(C)=C2C(=O)Nc2cccc(C)c2C)cc(OC)c1OC (stereo not shown) | 19.8% |
| Cc1cc(S(=O)(=O)NC2CCN(Cc3ccccc3)CC2)c(C)cc1Cl | 2.78% |
| COc1ccc(CC(=O)N/N=C/C=C/c2ccc3c(c2)OCO3)cc1OC | -2.81% |
| CCC(CC)NC(=O)CC(c1ccccc1)c1ccccc1 | 20.7% |
| Cc1cccc(C(=O)Nc2cccc(C(=O)N/N=C/c3ccccn3)c2)c1 | -3.01% |
| O=C(CSc1n[nH]c(-c2ccncc2)n1)NCCc1ccccc1 | 13.2% |
| CCc1ccc(OCC(=O)N/N=C/c2cc([N+](=O)[O-])ccc2N2CCOCC2)cc1 | -14.6% |
| Cc1ccc(S(=O)(=O)Nc2c(NC3CCCCC3)c3ccccc3oc2=O)cc1C | 2.53% |
| CCOc1ccc(C(=O)COC(=O)Cn2cnc3c2c(=O)n(C)c(=O)n3C)cc1 | -13.5% |
| CC(C)Oc1ccc(C2CC(=O)N(c3ccccc3)C2=O)cc1 (stereo not shown) | 6.47% |
| CC(C)c1ccc(N=C2N=C(N)c3ccccc32)cc1 | -59.2% |
| COc1ccc(OC)c(C2C(C#N)=C(N)Oc3cc(C)n(Cc4ccccn4)c(=O)c32)c1 (stereo not shown) | -8.03% |
| O=C(N[C@@H](Cc1ccc(Br)cc1)C(=O)O)OCC1c2ccccc2-c2ccccc21 | -0.0748% |
